These results are taken from the supplement of paper PMC11417369.

± gives the standard deviation of the averaged measurements. The list shows a part of the results.

In this experiment the test system is PfAP2-I AP2 domain 3 (GST-tagged). Put plainly: gcPBM binding intensity (ln(normalized median fluorescence intensity)); higher = stronger DNA binding. In outline:
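GST-fused DNA-binding domains of P. falciparum, expressed in E. coli, were applied at about 25 μg on average for 1 h to an Agilent 4 × 180k array of primer-extended double-stranded 36-bp intergenic genomic probes and negative controls. Binding intensity is the highest Masliner-normalised natural-log median intensity across replicate spots of either probe orientation, measured with Alexa488 anti-GST antibody and a 488 nm scan.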
Consider “CCATTACCATATAAAACACACAAACATACATACATA [CACACA_site5952]”, for which the “gcPBM binding intensity (ln)” value was found to be 7.87 ± 0.52.

On to “GTATAATTATGTGCACGTACATATTTTATTATATAT [XGTACX_site8586]”, for which the “gcPBM binding intensity (ln)” value turned out to be 10 ± 0.28. Take “ACATAAATATATGACACACACACATATTATATATAT [CACACA_site3065]”: the “gcPBM binding intensity (ln)” value worked out at 8.36 ± 0.52. With “GTACGTTAGATATATACACACATACATAATAAAGAA [CACACA_site7327]”, the “gcPBM binding intensity (ln)” value was 8.04 ± 0.59. As to “TTACCCATTCCCTTTACATGCAATTTGTATTAATAA [TGCATGCA_site412]”, the “gcPBM binding intensity (ln)” value worked out at 8.46 ± 0.35. On to “TTAATTCTACTTATTACACACATATTAAGCAAAAAT [CACACA_site4921]”, for which the “gcPBM binding intensity (ln)” value worked out at 7.93 ± 0.35. On to “ATATGTTCCGAAGGTTGTACACACATAGAAATATAC [XGTACX_site8227]”, for which the “gcPBM binding intensity (ln)” value came to 8.23 ± 0.71. For the sequence “AAAATATATACAATATGTACATATATATATATATAT [XGTACX_site1898]”, the “gcPBM binding intensity (ln)” value worked out at 9.35 ± 0.38. As to “AAAAGGAAAAATATCACACATATATATATATATATA [CACACA_site5586]”, the “gcPBM binding intensity (ln)” value came out at 9.57 ± 0.48.

Consider “ATTATTATACACAAATGTACATGTGAATTTTTTTTC [XGTACX_site6982]”, for which the “gcPBM binding intensity (ln)” value came out at 7.95 ± 0.39.

As to “AATAAGTAACAAAATACACACATATAGGTAATTATA [CACACA_site6949]”, the “gcPBM binding intensity (ln)” value worked out at 7.62 ± 0.59. To “ATATATATTTATAGGTGTACAAAATACTATTTTAGG [XGTACX_site8499]” belongs 7.84 ± 0.45; to “AACTGATATTAATTCTGTACCTATACGTTATATGTT [XGTACX_site1003]”, 7.73 ± 0.62.

Consider “TATGAACATATATATTGTACAAAATTATAATTTCAA [XGTACX_site6406]”, for which the “gcPBM binding intensity (ln)” value came to 7.58 ± 0.38. For “AAGCGAATCTATATCACACACAAAAAAATCAGACTA [CACACA_site7072]”, the “gcPBM binding intensity (ln)” value was determined as 7.63 ± 0.57. As to “AGTTCAGAATTGAATAGTACATAAATATAACAAAAT [XGTACX_site650]”, the “gcPBM binding intensity (ln)” value was 7.91 ± 0.65. For “TATATATATTCTTTGTGTACTCATATAAGGGTAGAA [XGTACX_site8121]”, the “gcPBM binding intensity (ln)” value came to 8.16 ± 0.29. With “TTTTTAGAAAAGGTTATAAAAAATTAATTGAAAAAA [GTGCAC_negctrl_site289]”, the “gcPBM binding intensity (ln)” value is 7.68 ± 0.54. Take “AATCAATATTATATATGTACTTATTTTCACTTTTGC [XGTACX_site1775]”: the “gcPBM binding intensity (ln)” value came to 7.81 ± 0.47. “TTGTCATTATTATATTGTACAATAAGTATTAAAGAA [XGTACX_site1205]”: the “gcPBM binding intensity (ln)” value is 8.01 ± 0.57. To “AATAAACAAATAAATAAATAAACAGATAAATAAATC [CACACA_negctrl_site920]” belongs 7.71 ± 0.69. For the sequence “GAGAACATTGATACACGTACATAAGTTATAAGTATT [XGTACX_site7665]”, the “gcPBM binding intensity (ln)” value turned out to be 7.89 ± 0.47. To “AAGCATCCTACTGATTGTACATATATATATATATAT [XGTACX_site2150]” belongs 9.54 ± 0.13. For “TAATATATATAACAAGTGCAAAAAAATATAGATATT [GTGCAC_site9625]” the value was 9.38 ± 0.33; for “TTAGGTTATAAATACACACACAAAAGAAAAAAAAAA [CACACA_site5625]”, 8.06 ± 0.61; for “TATTTAAATTAATATTGTACATATATTTATAATATA [XGTACX_site6109]”, 7.52 ± 0.3. With “TTTATTTATATAATTACACACATATATACACAAATG [CACACA_site8903]”, the “gcPBM binding intensity (ln)” value is 7.81 ± 0.55.

Regarding “AAATATATTATATATGCATGCGCCAAGATTTATATA [TGCATGCA_site770]”, the “gcPBM binding intensity (ln)” value turned out to be 7.75 ± 0.38. Take “AAAAATAAATATACATGTACATAATAATAATATATA [XGTACX_site8359]”: the “gcPBM binding intensity (ln)” value was determined as 7.66 ± 0.099. Regarding “TTTGAAAAAAAATATTGTACACGTGAATAAAGTATT [XGTACX_site644]”, the “gcPBM binding intensity (ln)” value is 8.14 ± 0.6. For “TTGCATCTATTTTTGAGTACACAATGAGAATAATTA [XGTACX_site7171]”, the “gcPBM binding intensity (ln)” value came to 8.03 ± 0.31. For “TTAAAAAAGTAATTAACACACAATAATGTAATGCAT [CACACA_site4176]”, the “gcPBM binding intensity (ln)” value came to 8.18 ± 0.55. Regarding “AAAAAAAAAAGACACACACACACATACACATACATA [CACACA_site7362]”, the “gcPBM binding intensity (ln)” value came out at 7.96 ± 0.29.

On to “TATATATATATATATATATATATATATATAATTTGA [XGTACX_negctrl_site3]”, for which the “gcPBM binding intensity (ln)” value amounted to 8.88 ± 0.46. Take “ACCCAAAATATATTCACACAAAAAATATTAAAAATA [CACACA_site5433]”: the “gcPBM binding intensity (ln)” value is 7.72 ± 0.26.

Consider “TTTTTTTTTTTTTGAACACACATTATTAACTTTTAT [CACACA_site6281]”, for which the “gcPBM binding intensity (ln)” value turned out to be 8.07 ± 0.78. Consider “CGCGAACATACATACACACACATATATATATATGTA [CACACA_site205]”, for which the “gcPBM binding intensity (ln)” value was determined as 7.84 ± 0.52. For “AAAAAAAAGTTATATACACACATATAAATATAAATA [CACACA_site6683]” the value was 7.65 ± 0.49.

Regarding “TATATATTTTATATATGTACATATTTATATGTTTCT [XGTACX_site1818]”, the “gcPBM binding intensity (ln)” value was found to be 7.57 ± 0.057. For “AAAAATATTAAAAGGCGTACAATACCTGTATGCAAC [XGTACX_site6069]” the value was 7.97 ± 0.47. On to “CATGTAAAATATTAAAGTACATGATTATATATATAT [XGTACX_site7486]”, for which the “gcPBM binding intensity (ln)” value amounted to 9.11 ± 0.16. To “TATATTTATATAATATGTACATATTTTTTAATATTT [XGTACX_site3834]” belongs 7.55 ± 0.19. For “TATTTTATTTTCCGAAGTACAAAAGCAAAAAAAAAC [XGTACX_site103]”, the “gcPBM binding intensity (ln)” value worked out at 8.36 ± 0.35.

In the case of “AGCTAAAATATTTTTGCACACGATTTTTTTTTTTTT [CACACA_site1140]”, the “gcPBM binding intensity (ln)” value is 8.79 ± 0.57. Consider “ATAATATGAGTCCCACAAAATAGACCATACGAATAT [CACACA_negctrl_site50]”, for which the “gcPBM binding intensity (ln)” value was 7.88 ± 0.36. TATAAATTTATACCAGTGCATTTTGAAATATATATA: the “gcPBM binding intensity (ln)” value turned out to be 9.47 ± 0.057.

In the case of “TGGAACCATAAAAAGTGTACACATATAAAAAATATG [XGTACX_site96]”, the “gcPBM binding intensity (ln)” value is 8.1 ± 0.35.

“ATTTTAATTTTGTATACACACATTTGAATTATTAAT [CACACA_site3528]”: the “gcPBM binding intensity (ln)” value came to 7.65 ± 0.61. As to “AAATAATACATTCGTACTACACATATATATTAAATA [XGTACX_site7806]”, the “gcPBM binding intensity (ln)” value came to 7.84 ± 0.41.

As to “TAAAATGTTATAAGAACATGCAATTCCTTTTATTAT [TGCATGCA_site408]”, the “gcPBM binding intensity (ln)” value was determined as 7.53 ± 0.69. Consider “AATATATACATATATACACACACATATATATATATA [CACACA_site8907]”, for which the “gcPBM binding intensity (ln)” value stood at 9.22 ± 0.55.

On to “ATATATTATATTATATGTACTTAAAAAAGTGCAAAG [XGTACX_site318]”, for which the “gcPBM binding intensity (ln)” value was found to be 8.485 ± 0.035. For “TATATTCAATTTTTGGTGCGTAAATTAATACAAACA [GTGCAC_site9764]”, the “gcPBM binding intensity (ln)” value is 10.2 ± 0.45. Turning to “TATATGTCCATATTTCCACACACATATTATTTTTAT [CACACA_site9266]”, the “gcPBM binding intensity (ln)” value came to 7.88 ± 0.73. To “TTTTTTCAATAAATAATCGTATATTGAATAATAATA [CACACA_negctrl_site822]” belongs 7.3 ± 0.61.

For the sequence “AGAGAGAACGGTATAACATGCGATAAATTTTAGAAG [TGCATGCA_site357]”, the “gcPBM binding intensity (ln)” value is 7.54 ± 0.86. In the case of “ATGCACGGAAAAATATGTACTTAATTTCAATAATAT [XGTACX_site8311]”, the “gcPBM binding intensity (ln)” value amounted to 8.62 ± 0.7.
